Results taken from PubChem BioAssay AID686979 (National Center for Advancing Translational Sciences (NCATS), 2013).
About 50,000 (12%) of roughly 420,000 compounds were called active. The shares of active, inactive and inconclusive entries below differ from those in the screen. Calls come from the whole dose curve; as a rule, active = well fitted inhibition curve with a large enough effect; inconclusive = small, poorly fitted or top-dose-only effect; inactive = flat fitted curve, though single readings scatter. Potencies of inconclusive entries are left out as doubtful fits.

Test: qHTS for Inhibitors of human tyrosyl-DNA phosphodiesterase 1 (TDP1): qHTS in cells in presence of CPT; note: nearly all actives have a fitted effect of over 55% in size
Settings: chicken DT40 Tdp1-/-;hTDP1 cells + 20 nM CPT, ATP luminescence, 48 h; activity change, negative = growth inhibition: at 46.2 µM (top of the series)
Outline: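 Chicken DT40 Tdp1-/- cells complemented with human TDP1, 400 cells/well, exposed to compounds plus 20 nM camptothecin for at least 48 h at 37 C; viability read as ATP content by CellTiter-Glo luminescence.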
% is set by controls: 0 for no effect and ±100 for the full control effect; potency is the fitted concentration of half-maximal effect; tags give direction and shape of the fitted curve.

| SMILES | Potency | activity change, negative = growth inhibition |
| --- | --- | --- |
| O=C(NCc1ccccc1)C(=O)Nc1c2c(nn1-c1ccccc1)CSC2 | active: 16.4 µM | – |
| CC1(C)CC(NC(=O)c2ccccc2NS(=O)(=O)c2ccc(Br)cc2)CC(C)(C)N1 | – | inactive: -24.8% |
| O=C(N/N=C/c1ccccc1)NC1CCCCC1 | inconclusive [inhibitor, single point] | – |
| CCOC(=O)C1(Cc2ccccc2)CCCN(Cc2ccc(OCCO)cc2)C1 (centres undefined) | inconclusive [inhibitor, single point] | – |
| COc1ccc(OC)c(CNCc2c(C(=O)O)n(Cc3cccc(F)c3)c3cc(OC)ccc23)c1 | inconclusive [inhibitor, single point] | – |
| CCN1CCCC1CN(Cc1cc2c(C)cc(C)cc2[nH]c1=O)C(=O)NC1CCCCC1 (centres undefined) | active: 23.1 µM | – |
| Cc1ccc(NC(=O)CSc2nc3ccccc3c(=O)n2CCCN2CCCCC2)cc1Cl | active: 20.6 µM | – |
| CCN1C(=O)[C@H]2[C@@H](c3ccc(C)cc3)N3C(=O)N(c4ccccc4)C(=O)[C@@]3(Cc3ccc(Cl)cc3)[C@H]2C1=O | inconclusive [inhibitor, partial curve, poor fit] | – |
| O=C(Oc1ccc2cccc(OC(=O)N3CCOCC3)c2c1)N1CCOCC1 | – | inconclusive: -31.2% [inhibitor] |
| O=C(CNC(=O)c1nc[nH]c1C(=O)NCC(=O)OCc1ccccc1)OCc1ccccc1 | – | inactive: -6.17% |
| CC(=O)c1c(C)[nH]c(C(=O)CN2CCN(S(=O)(=O)c3ccccc3F)CC2)c1C | inconclusive [inhibitor, single point] | – |
| COCc1ccc(CN2CCOc3ccc(C4=Cc5ccccc5C4)cc3C2)o1 | – | inactive: 0.711% [at 9.04 µM] |
| Cc1sc2nc3c(SC(C)C(=O)O)cc(C(=O)c4ccccc4O)cn3c(=O)c2c1C (centres undefined) | – | inactive: -3.16% |
| COc1ccc(C2(CNC(=O)C(=O)Nc3ccc(C)cc3)CCOCC2)cc1 | inconclusive [inhibitor, single point] | – |
| CCOc1ccccc1CN1CCNC(=O)C1CC(=O)NCCC1=CCCCC1 (centres undefined) | inconclusive [inhibitor, single point] | – |
| OCCN1CCN(C2Cc3cc(Cl)ccc3Sc3ccc(Cl)cc32)CC1 (centres undefined) (tested in a mixture with another compound) | active: 23.1 µM | – |
| C/C(=N/NC(=O)COc1ccc(C(C)(C)C)cc1)c1ccc(N2CCOCC2)cc1 | inconclusive [inhibitor, single point] | – |
| Cc1ccc(C)c(C2=NNC(=NCc3ccccc3)SC2)c1 | inconclusive [inhibitor, single point] | – |
| COc1ccc(S(=O)(=O)Cc2ccc(C(=O)O)o2)cc1 | – | inactive: 10.4% |
| O=C(CCc1nnc2ccc(N3CCCC3)nn12)Nc1ccc(F)cc1F | – | inactive: -0.498% |
| O=C(Nc1ccc(Cl)c(S(=O)(=O)N2CCCCC2)c1)c1ccncc1 | active: 14.6 µM | – |
| C=C(C)CSc1nc2ccccc2[nH]1 | – | inactive: -19.3% |
| COc1cc(C(=O)Nc2ccc(-c3nc4cc(C)ccc4o3)c(O)c2)cc(OC)c1OC | active: 11.6 µM | – |
| Cc1cc(Cl)nc2ccccc12 | – | inactive: 3.49% |
| COc1cc(NC(=O)Nc2cccn3nc(COCCO)nc23)cc(OC)c1OC | – | inactive: 2.17% |

| SMILES | Potency | activity change, negative = growth inhibition |
| --- | --- | --- |
| Cc1ccccc1CCNC(=O)c1ccc2c(c1)nc1n2CCCCC1 | inconclusive [inhibitor, single point] | – |
| CCOC(=O)C1CCCN(Cc2ccc(OCc3ccccc3)c(OC)c2)C1 (centres undefined) | inconclusive [inhibitor, single point] | – |
| CC(C)c1nnc(SCC(=O)N2CCc3ccccc32)n1N | – | inactive: 7.17% |
| COc1cc(N2CCCC2)c(OC)cc1/C=C(/C#N)c1ccc(F)cc1 | inconclusive [inhibitor, single point] | – |
| CCOC(=O)C(Cc1c[nH]c2ccccc12)NC(=O)c1ccccc1Br (centres undefined) | inconclusive [inhibitor, partial curve] | – |
| CCOc1ccc(-n2c(C)c(C(C)=O)c3cc(OCC(N)=O)ccc32)cc1 | – | inactive: -0.738% |
| Cc1cccc(-c2nc(CN3CCCC(C(=O)NCCc4ccc(Cl)cc4)C3)c(C)o2)c1 (centres undefined) | active: 16.4 µM | – |
| CCCCN1C(=O)C(CC(=O)NCCCCc2ccccc2)CC(C(=O)N2CCCCCC2)=C1C (centres undefined) | active: 18.4 µM | – |
| C=CC[C@H](c1ccc(F)cc1)N(CC(C)C)S(=O)(=O)C=C | inconclusive [inhibitor, single point] | – |
| COc1ccc(OCCNc2cc(N3CCOCC3)ccc2[N+](=O)[O-])cc1 | inconclusive [inhibitor, single point] | – |
| CCCCn1c(=O)[nH]c(=O)c2c(C(=O)OCC)cc(-c3cccs3)nc21 | inconclusive [inhibitor, single point] | – |
| CCCCOc1ccc(-c2cc(C(F)(F)F)c(C#N)c(SCC(=O)O)n2)cc1 | inconclusive [inhibitor, single point] | – |
| COc1ccc(-c2[nH]ncc2CN2CCCC2c2nonc2C)c(F)c1 (centres undefined) | inconclusive [inhibitor, single point] | – |
| CCc1ccc2nc(N(CCCN(C)C)C(=O)c3ccc(S(=O)(=O)N4CCc5ccccc5C4)cc3)sc2c1 | active: 5.17 µM | – |
| CCOC(=O)c1cccc(NC(=O)c2cnc3sc(N4CCOCC4)nn3c2=O)c1 | inconclusive [inhibitor, partial curve] | – |
| COC(=O)C(=Cc1ccccc1[N+](=O)[O-])C(=O)OC | active: 8.2 µM | – |
| Cc1csc2nc(CNS(=O)(=O)c3ccc4c(c3)CCCC4)cn12 | inconclusive [inhibitor, partial curve] | – |
| O=C(CN1CCCN(S(=O)(=O)c2ccc(F)cc2)CC1)Nc1cccc(F)c1 | inconclusive [inhibitor, single point] | – |
| NS(=O)(=O)c1ccc(CCNC(=O)CNCCc2ccccc2)cc1 | – | inactive: -10.4% |
| COC(=O)c1ccccc1NC(=O)CSc1nc(C)c(Cl)c(C)c1C#N | – | inactive: -18.4% |
| Cn1c(=O)c2c(nc(NCc3ccc4c(c3)OCO4)n2Cc2ccccc2Cl)n(C)c1=O | inconclusive [inhibitor, single point] | – |
| O=C(C1=C[C@H](c2coc3ccccc3c2=O)C[C@H](OCc2ccc(CO)cc2)O1)N1CCOCC1 | – | inactive: -21.8% |
| Cc1ccc2c(c1)c1c(c(=O)n(Cc3ccccc3)c(=O)n1CC(=O)Nc1ccccc1F)n2C | – | inactive: -5.14% |
| O=C(NCCc1ccccn1)c1cccc(S(=O)(=O)N2CCc3ccccc32)c1 | inconclusive [inhibitor, single point] | – |
| O=C1c2c(-c3ccc(Br)cc3)noc2CCN1Cc1cn(C2CCCC2)nn1 | inconclusive [inhibitor, single point] | – |

| SMILES | Potency | activity change, negative = growth inhibition |
| --- | --- | --- |
| COc1ccccc1NS(=O)(=O)c1cccc(-n2c(O)c(C=Nc3ccccc3C(=O)O)c3ccccc3c2=O)c1 | inconclusive [inhibitor, single point] | – |
| COc1cc(OC)c(NC(=O)CCNC(=O)Cn2cnc3ccccc3c2=O)cc1Cl | active: 18.4 µM | – |
| O=C1NC(=O)C2(CCCc3ccccc32)N1 (centres undefined) | – | inactive: -6.25% |
| N#CC(c1ccccc1)c1ccc2c(C(F)(F)F)cc(C(F)(F)F)nc2n1 (centres undefined) | active: 13 µM | – |
| CCCCCCCCCCOCC(O)CN (centres undefined) | active: 6.68 µM | – |
| Cn1ccnc1SCC(=O)NC1CCCC1 | – | inconclusive: -1.59% [inhibitor] |
| O=C(NC1(C(F)(F)F)OCCO1)c1ccc(F)cc1 | – | inactive: -0.505% |
| c1cnc(N2CCN(c3ccc4ccccc4n3)CC2)nc1 | inconclusive [inhibitor, single point] | – |
| Cc1ccc2nc(NC(=O)CSc3nccn3Cc3ccc(F)cc3)sc2c1 | active: 16.4 µM | – |
| COc1ccc(NS(=O)(=O)c2cc(NC(=O)C3CCCCC3)ccc2N2CCOCC2)cc1 | inconclusive [inhibitor, single point] | – |
| CCC(C)NC(=O)c1sc2nc(C)c(C(=O)Nc3ccc(C)cc3C)c(-c3ccc(NC(C)=O)cc3)c2c1N (centres undefined) | active: 20.6 µM | – |
| CCn1c(=N)n(CC(=O)c2ccc(Cl)c(Cl)c2)c2ccccc21 | active: 25.9 µM | – |
| O=C(COc1ccccc1F)Nc1ccc(S(=O)(=O)NCc2ccco2)cc1 | inconclusive [inhibitor, single point] | – |
| Cc1cccc(/C=N/NC(=O)c2cccc(Cl)c2)n1 | inconclusive [inhibitor, single point] | – |
| Nc1sc(-c2ccccc2)cc1C(=O)N/N=C/c1ccc(Cl)cc1 | inconclusive [inhibitor, single point] | – |
| CC1(C(=O)NS(=O)(=O)c2cccc(Cl)c2)CCN1C(=O)Cc1ccsc1 (centres undefined) | – | inactive: 5.77% |
| Cc1cccc(C(=O)OCC(=O)NC(=O)Cc2ccccc2)c1O | – | inactive: -24% |
| CC1C=CCC2C(=O)N(c3cc(Cl)ccc3O)C(=O)C12 (centres undefined) | – | inactive: -18.2% |
| CN(CC(=O)NCC(c1ccco1)N1CCCCC1)S(=O)(=O)c1ccc(Cl)cc1 (centres undefined) | inconclusive [inhibitor, full curve, poor fit] | – |
| O=C(Nc1ccccc1)c1ccc(=O)[nH]n1 | – | inactive: -2.21% |
| COc1ccc(/C=N\NC(=O)c2ccc(Cn3cc(Br)c([N+](=O)[O-])n3)o2)c(OC)c1C | inconclusive [inhibitor, single point] | – |
| Brc1cccc(-c2cnco2)c1 | – | inactive: -5.46% |
| COc1ccc(Cn2c(C(=O)O)c(CNCc3ccc(SC)cc3)c3ccc(OC)cc32)cc1 | active: 5.17 µM | – |
| c1ccc(-c2nn3c(Cn4nnc5ccccc54)nnc3s2)cc1 | inconclusive [inhibitor, single point] | – |
